# Measurements from the RNAGym collection of RNA variant scans (doi:10.1073/pnas.2313332121).
# Variants at the floor of the assay are shown more often than the library holds them.
# B1: TPR 5TU (parent)
# chain: GGAUCUUCUCGAUCUAACAAAAAAGACAAAUCUGCCACAAAGCUUGAGAGCAUCUUCGGAUGCAGAGGCGGCAGCCUUCGGUGGCGCGAUAGCGCCAACGUUCUCAACUAUGACACGCAAAACGCGUGCUCCGUUGAAUGGAGUUUAUCAUG
# Variants of: B1
# Experiment: polymerase ribozyme fitness, log enrichment relative to wild type (log ratio); higher = more active; in vitro selection for triplet polymerase activity
# Procedure, shortened: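 A single round of triplicate in vitro selection, including frozen incubation at −7 °C, was applied to PCR-built, transcribed mutant libraries of each subunit of a heterodimeric triplet polymerase ribozyme. Illumina sequencing of input and output libraries retained genotypes with ≥10 input reads and ≥1 read per output. Fitness is the base-2 logarithm of genotype enrichment divided by wild-type enrichment, from inverse-variance-weighted replicate averages.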
row,Variant,polymerase ribozyme fitness (log ratio)
1,GGAUCUUCUCGAUCUAACAAAAAAGACAAAUCUGCCACAAAGCUUGAGAGCAUCUUCCGAAGCAGAGGCGGCAUCCGUUCGUGGCGAGAUAGCGCCAACGUUCUCAACUAUGACACGCAAAACGCGUGCUCCGUUGAAUGGAGUUUAUCAUG [G58C U61A G74U U77G C79U G80C C87A],≤ -4.2
2,GGAUCUUCUCGAUCUAACAAAAAAGACAAAUCUGCCACAAAGCUUGAGAGCAUCUUCCGAAGCAGAGGCGGCAGCCUACGGUGGCGCGAUAGCGCCAACGUUCUCAACUAUGACAUGCAAAACGCGUGCUCCGUUGAAUGGAGUUUAUUAUG [G58C U61A U78A C116U C149U],≤ -4.2
3,GGAUCUUCUCGAUCUAACAAAAAAGACAAAUCUGCCACAAAGCUUGAGAGCAUCUUCCGACGCAGAGGCCGCAGCGUUCGGUGGCGCGAUAGCGCUAACGUUCUCAACUAUGACACGCAAAACGCGUGCUCCGUUGAGUUGAGUUUAUGAUG [G58C U61C G70C C76G C96U A138G G140U C149G],≤ -4.2
4,GGAUCUUCUCGAUCUAACAAAAAAGACAAAUCUGCCACAAAGCUUGAGAGCAUCUUCCGAUGCAGAGGCGGCAGCCUUCGGCGGCGCGUUAGCGCCAACGUUCUCAAGUAUGAAACGUAAAACGCGUGCUCCGUUGAAUAGAGUUUAUCAUG [G58C U82C A89U C108G C114A C118U G140A],≤ -4.2
5,GGAUCUUCUCGAUCUAACAAAAAAGACAAAUCUGCCACAAAGCUUGAGAGCAUCUUCCGAUGCAGAGGCGGCAGCCUUCGGUGGCGCGAAAGCGCCAAUGUUCUCAACUAUGACACGCAAAACGCGUGCUCCGUUGAAUGGAGUUUAUCAUG [G58C U90A C99U],≤ -4.2
6,GGAUCUUCUCGAUCUAACAAAAAAGACAAAUCUGCCACAAAGCUUGAGAGCAUCUUCCGAUGCAGAGGCGGCAGCCUUCGGUGGCGCGAUAGCGCCAACGUUCUCAACUAUGACACGCAAAACGCGUGCUCCGGUGAAUGGAGUUUAUCAUG [G58C U134G],-3.93
7,GGAUCUUCUCGAUCUAACAAAAAAGACAAAUCUGCCACAAAGCUUGAGAGCAUCUUCCGAUGCAGAGGCGGCAGCCUUCGGUGGCGCGAUAGCGCCAACGUUCUCAACUAUGACACGCAAAACGCGUGCUCCGUGGAAUGGAGUUUAUCAUG [G58C U135G],-3.82
8,GGAUCUUCUCGAUCUAACAAAAAAGACAAAUCUGCCACAAAGCUUGAGAGCAUCUUCUGUUGCUGAGGCGGCAGCCUUCGGUGGCGCAAUAGCGCCAACGUUCUCAACAAUGACACGCAAAACGCGUGGUCCGUUGAAUGGAGUUUAUCAUG [G58U A60U A64U G88A U109A C129G],≤ -4.2
9,GGAUCUUCUCGAUCUAACAAAAAAGACAAAUCUGCCACAAAGCUUGAGAGCAUCUUCUGAUGCAGAGGCGGCAGCCUUCGGUGGCGCGAUUGCGCCAACGUUCUCAACUAUGACACGCAAAACGCGUGCUCCGUUGAAUGGAGUUUAUCAUG [G58U A91U],≤ -4.2
10,GGAUCUUCUCGAUCUAACAAAAAAGACAAAUCUGCCACAAAGCUUGAGAGCAUCUUCUGAUGCAGAGGCGGCAGCCUUCGGUGGCGCGAUAGCGCCGGCGUUCUCAACUAUGACACUCAAAACGCGUGCUCCGUUGAAUGGAGUUGAUCAUG [G58U A97G A98G G117U U146G],-0.542
11,GGAUCUUCUCGAUCUAACAAAAAAGACAAAUCUGCCACAAAGCUUGAGAGCAUCUUCUGAUGCAGAGGCGGCAGCCUUCGGUGGCGCGAUAGCGCCAACGUUCUCAACUAUGACACGCAAAACGCGUGCUCCGUUGCAUGGAGUUUAUCAUG [G58U A137C],-3.03
12,GGAUCUUCUCGAUCUAACAAAAAAGACAAAUCUGCCACAAAGCUUGAGAGCAUCUUCUGAUGCAGAGGCGGUAGCCUUCGGUGGCGUGAUAGCGCCAAGGUUCUCAACUAUGACACGCAAAACGCGUGCUCCGUUGAAUGCAGUUUAUCAUG [G58U C72U C87U C99G G141C],≤ -4.2
13,GGAUCUUCUCGAUCUAACAAAAAAGACAAAUCUGCCACAAAGCUUGAGAGCAUCUUCUGAUGCAGAGGCGGCAGCCUUCGGUGGGGCGAUAGCGCCAACGUUCUCAACUAUGACACGCAAAACGCGUGCUCCGUUGAAUGGAGUUUAUCAUG [G58U C85G],-1.61
14,GGAUCUUCUCGAUCUAACAAAAAAGACAAAUCUGCCACAAAGCUUGAGAGCAUCUUCUGAUGCAGAGGCGGCAGCCUUCGGUGGCGGGAUAGGGCCAACGUUCUCAACUAUGACACGCAAAACGCGUGCUCCGUUGAAUGGAGUUUAUCAUG [G58U C87G C93G],≤ -4.2
15,GGAUCUUCUCGAUCUAACAAAAAAGACAAAUCUGCCACAAAGCUUGAGAGCAUCUUCUGAUGCAGAGGCGGCAGCCUUCGGUGGCGCGAUAGUGCCAACGUUCUCAACUAUGACACGCAAAACGCGUGCUCCGUUGAAUAGAGUUUAUCAGG [G58U C93U G140A U151G],≤ -4.2
16,GGAUCUUCUCGAUCUAACAAAAAAGACAAAUCUGCCACAAAGCUUGAGAGCAUCUUCUGAUGCAGAGGCGGCAGCCUUCGGUGGCGCGAUAGCGCCAACGUUCUCAACUAUGACACGCAAAAUGCGUGCUCCGUUGAAUGGAGUUUAUCAUG [G58U C123U],0.837
17,GGAUCUUCUCGAUCUAACAAAAAAGACAAAUCUGCCACAAAGCUUGAGAGCAUCUUCUGAUGCAGAGGCGGCAGCCUUCGGUGGCGCGAUAGCGCCAACGUUCUCAACUAUGACACGCAAAACGCGUGGUCCGUUGAAUGGAGUUUAUCAUG [G58U C129G],-2.47
18,GGAUCUUCUCGAUCUAACAAAAAAGACAAAUCUGCCACAAAGCUUGAGAGCAUCUUCUAAUGCAGAGGCGGCAGCCUUCGGUGGCGCGAUAGCGCCAACGUUCUCAACUAUGACACGCAAAACGCGUGCUCCGUUGAAUGGAGUUUAUCAUG [G58U G59A],0.429
19,GGAUCUUCUCGAUCUAACAAAAAAGACAAAUCUGCCACAAAGCUUGAGAGCAUCUUCUGAUGCAGAGGCGGCACCCUUCGGUGACGCGAUAGCGCCAACGUUCUCAAAUAUGACACGCAAAACGCGCGCUCCGUUGAAUGGAGUUUAUCAUG [G58U G74C G84A C108A U127C],≤ -4.2
